Our source for the binding values is paper PMC7048933.

The chains behind the UniProt entries cited, without tags or fusion partners.
UniProt Q92793: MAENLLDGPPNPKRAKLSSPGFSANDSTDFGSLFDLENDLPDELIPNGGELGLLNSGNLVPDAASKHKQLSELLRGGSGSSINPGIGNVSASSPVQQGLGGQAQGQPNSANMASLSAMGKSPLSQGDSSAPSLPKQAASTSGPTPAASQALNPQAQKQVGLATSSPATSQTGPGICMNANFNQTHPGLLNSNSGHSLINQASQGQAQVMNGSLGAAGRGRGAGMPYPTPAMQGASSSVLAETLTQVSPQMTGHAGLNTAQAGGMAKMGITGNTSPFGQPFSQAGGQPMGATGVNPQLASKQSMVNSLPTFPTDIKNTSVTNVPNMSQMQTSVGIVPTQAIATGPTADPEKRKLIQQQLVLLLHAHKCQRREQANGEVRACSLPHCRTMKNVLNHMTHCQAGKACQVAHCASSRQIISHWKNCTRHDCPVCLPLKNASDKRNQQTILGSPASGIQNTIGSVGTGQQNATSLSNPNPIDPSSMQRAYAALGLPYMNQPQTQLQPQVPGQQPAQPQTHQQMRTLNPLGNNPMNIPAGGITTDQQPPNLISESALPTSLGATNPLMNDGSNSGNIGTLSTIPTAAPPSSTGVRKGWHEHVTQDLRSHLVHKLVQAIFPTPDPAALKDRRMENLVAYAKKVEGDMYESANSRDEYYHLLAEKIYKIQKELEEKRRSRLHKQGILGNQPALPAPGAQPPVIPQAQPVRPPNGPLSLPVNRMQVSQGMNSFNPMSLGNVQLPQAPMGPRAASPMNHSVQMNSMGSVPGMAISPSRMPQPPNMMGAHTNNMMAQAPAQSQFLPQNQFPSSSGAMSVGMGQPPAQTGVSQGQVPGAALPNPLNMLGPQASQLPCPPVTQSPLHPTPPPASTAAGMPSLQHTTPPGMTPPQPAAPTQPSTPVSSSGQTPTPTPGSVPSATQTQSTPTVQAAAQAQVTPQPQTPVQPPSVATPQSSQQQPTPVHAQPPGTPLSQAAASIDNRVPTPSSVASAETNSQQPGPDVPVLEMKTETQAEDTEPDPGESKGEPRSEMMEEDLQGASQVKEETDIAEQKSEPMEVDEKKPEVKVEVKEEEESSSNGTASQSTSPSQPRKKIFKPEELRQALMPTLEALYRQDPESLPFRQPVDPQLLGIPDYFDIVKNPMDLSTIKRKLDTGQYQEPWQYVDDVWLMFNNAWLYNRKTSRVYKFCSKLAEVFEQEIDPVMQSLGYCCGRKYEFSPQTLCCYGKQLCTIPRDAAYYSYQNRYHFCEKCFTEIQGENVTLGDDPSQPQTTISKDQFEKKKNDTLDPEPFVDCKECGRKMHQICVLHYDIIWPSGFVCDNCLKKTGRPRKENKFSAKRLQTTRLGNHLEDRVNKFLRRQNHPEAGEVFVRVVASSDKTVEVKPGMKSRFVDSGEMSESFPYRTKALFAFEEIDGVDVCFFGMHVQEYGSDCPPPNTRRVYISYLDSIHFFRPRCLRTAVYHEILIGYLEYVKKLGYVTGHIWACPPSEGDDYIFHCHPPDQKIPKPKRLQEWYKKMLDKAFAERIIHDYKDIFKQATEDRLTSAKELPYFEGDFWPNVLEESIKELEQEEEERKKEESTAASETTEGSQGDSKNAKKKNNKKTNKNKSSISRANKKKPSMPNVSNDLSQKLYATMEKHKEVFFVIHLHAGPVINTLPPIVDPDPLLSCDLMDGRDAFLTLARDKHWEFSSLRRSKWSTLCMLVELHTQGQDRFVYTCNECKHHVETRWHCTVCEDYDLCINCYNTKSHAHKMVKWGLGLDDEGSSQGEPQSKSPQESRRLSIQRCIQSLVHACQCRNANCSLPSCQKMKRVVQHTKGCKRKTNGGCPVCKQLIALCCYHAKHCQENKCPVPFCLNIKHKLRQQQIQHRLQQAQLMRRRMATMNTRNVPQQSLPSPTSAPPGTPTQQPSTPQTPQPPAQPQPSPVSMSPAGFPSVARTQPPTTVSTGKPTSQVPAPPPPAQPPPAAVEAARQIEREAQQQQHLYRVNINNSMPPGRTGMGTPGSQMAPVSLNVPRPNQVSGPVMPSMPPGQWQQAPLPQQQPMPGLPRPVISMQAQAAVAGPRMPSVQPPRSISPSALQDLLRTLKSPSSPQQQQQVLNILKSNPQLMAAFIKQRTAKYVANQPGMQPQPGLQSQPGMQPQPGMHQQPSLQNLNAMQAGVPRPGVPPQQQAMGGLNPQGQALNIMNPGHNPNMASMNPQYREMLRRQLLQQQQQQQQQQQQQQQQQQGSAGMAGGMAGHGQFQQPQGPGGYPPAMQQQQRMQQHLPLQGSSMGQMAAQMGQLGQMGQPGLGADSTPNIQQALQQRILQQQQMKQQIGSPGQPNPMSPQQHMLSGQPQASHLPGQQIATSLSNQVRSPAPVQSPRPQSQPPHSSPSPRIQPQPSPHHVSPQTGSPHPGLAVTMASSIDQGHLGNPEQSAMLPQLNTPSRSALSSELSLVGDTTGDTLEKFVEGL
UniProt Q92830: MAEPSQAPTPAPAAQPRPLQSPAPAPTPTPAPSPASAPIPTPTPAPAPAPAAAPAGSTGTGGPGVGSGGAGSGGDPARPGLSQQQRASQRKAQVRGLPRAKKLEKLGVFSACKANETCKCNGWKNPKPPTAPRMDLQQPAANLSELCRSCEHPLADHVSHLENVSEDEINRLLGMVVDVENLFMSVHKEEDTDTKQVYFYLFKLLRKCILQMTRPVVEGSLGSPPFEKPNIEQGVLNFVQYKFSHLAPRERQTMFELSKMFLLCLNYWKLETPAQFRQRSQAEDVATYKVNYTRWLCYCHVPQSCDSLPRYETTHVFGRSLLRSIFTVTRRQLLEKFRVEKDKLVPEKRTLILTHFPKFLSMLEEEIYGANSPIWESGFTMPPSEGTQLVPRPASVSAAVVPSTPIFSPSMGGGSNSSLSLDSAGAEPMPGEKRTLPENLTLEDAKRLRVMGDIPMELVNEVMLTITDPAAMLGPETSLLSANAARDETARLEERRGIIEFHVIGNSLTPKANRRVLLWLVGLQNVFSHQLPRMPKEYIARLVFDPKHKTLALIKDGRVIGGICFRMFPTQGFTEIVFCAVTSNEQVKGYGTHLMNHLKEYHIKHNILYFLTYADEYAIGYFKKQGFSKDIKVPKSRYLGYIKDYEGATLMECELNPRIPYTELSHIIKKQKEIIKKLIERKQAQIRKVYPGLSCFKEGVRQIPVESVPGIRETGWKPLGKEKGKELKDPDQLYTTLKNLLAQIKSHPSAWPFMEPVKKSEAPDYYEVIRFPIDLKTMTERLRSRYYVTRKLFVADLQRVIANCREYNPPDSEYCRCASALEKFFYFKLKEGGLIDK
UniProt Q92831: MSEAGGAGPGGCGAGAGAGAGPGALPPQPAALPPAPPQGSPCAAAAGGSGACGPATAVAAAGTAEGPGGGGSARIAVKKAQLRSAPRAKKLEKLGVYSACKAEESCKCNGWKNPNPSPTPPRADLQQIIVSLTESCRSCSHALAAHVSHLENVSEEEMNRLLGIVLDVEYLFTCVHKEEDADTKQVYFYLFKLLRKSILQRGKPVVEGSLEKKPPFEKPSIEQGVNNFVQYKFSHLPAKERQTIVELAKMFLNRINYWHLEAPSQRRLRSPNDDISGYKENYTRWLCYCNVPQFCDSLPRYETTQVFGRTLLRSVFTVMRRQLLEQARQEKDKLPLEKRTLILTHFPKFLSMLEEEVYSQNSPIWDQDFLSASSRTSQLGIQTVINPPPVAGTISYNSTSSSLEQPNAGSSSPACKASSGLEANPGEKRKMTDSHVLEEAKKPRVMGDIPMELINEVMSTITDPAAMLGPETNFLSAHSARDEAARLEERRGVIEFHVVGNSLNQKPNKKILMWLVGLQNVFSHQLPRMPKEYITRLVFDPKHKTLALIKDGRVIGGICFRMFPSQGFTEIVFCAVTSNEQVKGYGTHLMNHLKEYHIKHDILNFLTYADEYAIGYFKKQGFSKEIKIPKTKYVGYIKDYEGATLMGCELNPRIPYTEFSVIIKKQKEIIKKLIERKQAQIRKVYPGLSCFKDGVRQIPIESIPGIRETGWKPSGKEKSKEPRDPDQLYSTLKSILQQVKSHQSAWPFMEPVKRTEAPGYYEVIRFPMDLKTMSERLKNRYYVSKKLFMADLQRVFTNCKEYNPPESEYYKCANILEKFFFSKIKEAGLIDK
UniProt Q92993: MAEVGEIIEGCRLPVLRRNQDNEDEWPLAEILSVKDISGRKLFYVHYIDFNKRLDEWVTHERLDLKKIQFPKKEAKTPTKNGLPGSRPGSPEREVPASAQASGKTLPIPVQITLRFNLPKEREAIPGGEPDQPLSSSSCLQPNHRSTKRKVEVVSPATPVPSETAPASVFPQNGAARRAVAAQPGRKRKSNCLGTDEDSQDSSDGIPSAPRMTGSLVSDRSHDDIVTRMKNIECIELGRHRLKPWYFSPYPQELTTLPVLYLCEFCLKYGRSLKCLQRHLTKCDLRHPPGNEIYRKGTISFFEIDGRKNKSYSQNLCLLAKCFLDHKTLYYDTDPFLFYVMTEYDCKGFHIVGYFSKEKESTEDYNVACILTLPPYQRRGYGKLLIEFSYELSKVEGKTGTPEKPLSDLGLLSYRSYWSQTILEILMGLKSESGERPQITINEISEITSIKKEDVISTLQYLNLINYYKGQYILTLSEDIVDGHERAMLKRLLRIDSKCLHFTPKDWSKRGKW
UniProt O15379: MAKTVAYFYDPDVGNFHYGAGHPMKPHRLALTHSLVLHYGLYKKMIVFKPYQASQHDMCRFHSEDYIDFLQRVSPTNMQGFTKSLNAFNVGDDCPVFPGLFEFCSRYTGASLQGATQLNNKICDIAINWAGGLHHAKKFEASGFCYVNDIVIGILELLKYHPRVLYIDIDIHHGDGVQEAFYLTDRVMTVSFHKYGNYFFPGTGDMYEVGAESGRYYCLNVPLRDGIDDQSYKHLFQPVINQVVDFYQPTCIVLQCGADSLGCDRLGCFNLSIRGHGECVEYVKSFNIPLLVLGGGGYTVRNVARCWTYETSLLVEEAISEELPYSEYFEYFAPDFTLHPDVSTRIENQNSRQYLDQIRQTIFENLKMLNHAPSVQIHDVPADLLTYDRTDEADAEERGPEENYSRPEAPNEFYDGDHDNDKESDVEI
UniProt Q9UNE7: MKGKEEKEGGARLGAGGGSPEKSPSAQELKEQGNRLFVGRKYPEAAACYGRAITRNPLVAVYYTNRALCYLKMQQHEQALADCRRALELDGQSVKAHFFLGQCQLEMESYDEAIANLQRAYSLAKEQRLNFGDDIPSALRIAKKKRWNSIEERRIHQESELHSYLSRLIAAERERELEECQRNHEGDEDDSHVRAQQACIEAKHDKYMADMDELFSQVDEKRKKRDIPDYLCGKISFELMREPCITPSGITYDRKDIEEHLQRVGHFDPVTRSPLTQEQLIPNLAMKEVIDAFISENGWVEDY

Test [1] deals with T1, Flag-tagged CBX4 (chromobox homolog 4), wild type (human) (UniProt O00257).
T1 sequence: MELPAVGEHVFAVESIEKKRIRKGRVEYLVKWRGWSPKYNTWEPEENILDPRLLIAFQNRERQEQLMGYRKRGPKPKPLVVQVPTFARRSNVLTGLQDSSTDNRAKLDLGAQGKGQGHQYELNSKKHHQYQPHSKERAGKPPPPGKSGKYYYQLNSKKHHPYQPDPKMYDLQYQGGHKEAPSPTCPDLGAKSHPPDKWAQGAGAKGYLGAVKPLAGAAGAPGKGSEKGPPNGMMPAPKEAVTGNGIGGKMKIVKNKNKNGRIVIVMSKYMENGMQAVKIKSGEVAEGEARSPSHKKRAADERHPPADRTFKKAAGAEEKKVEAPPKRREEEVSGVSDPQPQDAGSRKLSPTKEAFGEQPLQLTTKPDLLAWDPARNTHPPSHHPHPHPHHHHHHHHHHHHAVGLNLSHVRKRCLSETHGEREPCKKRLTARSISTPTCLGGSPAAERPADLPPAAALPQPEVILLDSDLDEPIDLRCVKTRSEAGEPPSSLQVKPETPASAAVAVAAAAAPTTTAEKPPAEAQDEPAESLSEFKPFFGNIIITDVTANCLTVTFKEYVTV
In words: co-IP; exogenous level: cells (HEK293T where stated) co-transfected with tagged plasmids; lysed in RIPA buffer (150 mM NaCl, 0.5% EDTA, 50 mM Tris, 0.5% NP40); anti-HA-, anti-Myc- or anti-FLAG-agarose, 2 h to overnight at 4 °C; five washes with RIPA; Western blotting; in Fig. 7d with or without pyrvinium pamoate for 24 h (interaction of CBX4 with CHIP increased by the treatment). On the technique in general: In western blotting, separated proteins are transferred to a membrane and probed.

For test [2], the target named is T1, Flag-tagged CBX4 (chromobox homolog 4), wild type (human). In words: co-IP; Supplementary Fig. 10B, C: WT-CBX4, CDM-CBX4 and ΔTM-CBX4 with GCN5 and HDAC3; method, cells and tags not told in the text shown (co-IP is the only binding method of the methods section).
For test [3], the target named is T2, endogenous CBX4 of U2OS/MTX300 cells (human (endogenous in U2OS/MTX300)) (UniProt O00257).
T2 sequence: T1 sequence
The experiment in a line: co-IP; endogenous level: U2OS/MTX300 lysate (RIPA) incubated with anti-CBX4 antibody or anti-IgG antibody 2 h at 4 °C, then protein A/G-agarose 2 h to overnight; five washes with RIPA; Western blotting.

These are yes or no findings as the source states them, for the method shown. Binding seen in cells or lysates may run through a third protein. Some entries that bind do so weakly or less than the wild type. For some assays here: Sequences can lack the tags named with a protein.

“HA-tagged CBP (from UniProt Q92793 1-2442)”: the binding result in test [1] is given as “binds”.
Regarding “HA-tagged GCN5 (from UniProt Q92830 1-837)”, the binding result in test [1] and in test [2] was “binds” each time.
In the case of “HA-tagged P300 (from UniProt Q09472 1-2414)”, in test [1], the binding entry is on record as “binds”.
Same read-out and setting: the value for “HA-tagged PCAF (from UniProt Q92831 1-832)” was “no binding”.
With “HA-tagged TIP60 (from UniProt Q92993 1-513)”, the binding result in test [1] is “no binding”.
Consider “HDAC3 (from UniProt O15379 1-428) (enzyme)”, for which the binding entry in test [2] was “binds”.
As to “Myc-tagged CHIP (carboxyl terminus of HSC70-interacting protein), wild type (from UniProt Q9UNE7 1-303) (enzyme)”, the binding result in test [1] is “binds”.
As for “endogenous CBP of U2OS/MTX300 cells (from UniProt Q92793 1-2442)”, in test [3], the binding entry is “binds”.
Same read-out and setting: to “endogenous CHIP of U2OS/MTX300 cells (from UniProt Q9UNE7 1-303) (enzyme)” belongs “binds”; to “endogenous GCN5 of U2OS/MTX300 cells (from UniProt Q92830 1-837)”, “binds”.
Turning to “endogenous P300 of U2OS/MTX300 cells (from UniProt Q09472 1-2414)”, in test [3], the binding entry is given as “binds”.
“endogenous PCAF of U2OS/MTX300 cells (from UniProt Q92831 1-832)”: the binding entry in test [3] is listed as “no binding”.
Still for that read-out and setting: to “endogenous TIP60 of U2OS/MTX300 cells (from UniProt Q92993 1-513)” belongs “no binding”.
